Results on 82 molecules are retold here after ChEMBL document CHEMBL1201862, “PubChem BioAssay data set” (2004).

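Cultured in 96-well plates, cells were exposed to test compound for 48 hours across five concentrations. At the GI50, growth is halved.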 Active and inactive are the calls of the source. Cut-off read from the data, not from the text of the source: active = GI50 up to about 1.1 µM and inactive = higher.

In this assay the test system is NCI-H322M. Description: DTP human tumour cell line panel, 48 h.
On to `Oc1ccc(CCNCc2cc3c(cc2Br)OCO3)cc1`, for which the GI50 (as a rule, the concentration that inhibits growth by half) is inactive: > 100 µM.
Regarding `CC1(C)COC(c2ccc(C(=O)c3ccc(Cl)cc3)cc2)=N1`, the GI50 is inactive: > 100 µM.
In the case of `c1cc2c(cnc3cscc32)s1`, the GI50 was inactive: > 100 µM.
The figure for `O=C(O)CCN(CCC(=O)O)c1ccc(/C=C2\SC(=S)NC2=O)cc1` is inactive: > 100 µM; for `CCCCC/C=C1\CC(CO)(COC(=O)CC(C(C)C)C(C)C)OC1=O` (configuration not stated) it is inactive: 11.6 µM; for `O=C1NC(=O)C(c2c[nH]c3ccccc23)=C1c1cnc[nH]1` it is inactive: > 100 µM.
Regarding `O=C1CCc2cc(Br)ccc2O1`, the GI50 is inactive: > 100 µM.
The figure for `CNC(=O)OCc1c2ccncc2c(C)c2c1[nH]c1ccccc12` is active: 0.267 µM; for `CC1CN1c1c(C(=O)/C=C/c2ccccc2)c(-c2ccccc2)nn(C)c1=O` (configuration not stated) it is inactive: 18.2 µM.
The result for `Brc1ccc2nc(-c3cccs3)nc(N3CCN(c4ccccc4)CC3)c2c1` reads inactive: > 100 µM.
Consider `COC(=O)c1cc2c3c(ccc2[nH]1)N(C(=O)c1cc2c4c(ccc2[nH]1)N(C(=O)c1cc2c5c(ccc2[nH]1)N(C(N)=O)CC5)CC4)CC3`, for which the GI50 was inactive: > 27.5 µM.
For the molecule `CC(C)(C)NC(=O)C12C3C4C1C1C2C3C41I` (configuration not stated), the GI50 is inactive: > 100 µM.
Turning to `COC(=O)n1c(CBr)c(Br)c2ccccc21`, the GI50 is inactive: 94.2 µM.
The result for `O=c1[nH]c(C23CC4CC(CC(C4)C2)C3)cc2c1c(=O)oc1ccccc12` reads inactive: 4.03 µM; that for `O=C(O)CC[N+]1=CCC(c2ccccc2)(c2ccccc2)O1`, inactive: > 100 µM; that for `CCCCCCCCCc1cccc(N2C(N)=NC(N)=NC2(C)C)c1`, active: < 0.0161 µM.
The result for `COc1ccc2c(-c3ccc(O)cc3)c(Oc3ccc(Cl)cc3)c(=O)oc2c1` reads inactive: 6.56 µM; that for `CC1(C)[C@H]2CC[C@@]13C(=O)N1C(=O)O[C@@H]([C@H]1Cl)C(Cl)(COCc1ccccc1)C(=O)OCCO[C@H]3C2` (some centres not stated), inactive: > 100 µM; that for `[O-][S+]1c2ccc(Cl)cc2CC(SSC2Cc3cc(Cl)ccc3[S+]([O-])c3ccccc32)c2ccccc21` (configuration not stated), inactive: > 100 µM.
The figure for `OCC(CO)C1c2cccc3ccc4cccc1c4c23` is inactive: > 100 µM.
`C/C=C/COc1cc(NC(=S)OC(C)C)ccc1Cl.C/C=C\COc1cc(NC(=S)OC(C)C)ccc1Cl`: the GI50 was inactive: 20.4 µM.
For `Cc1cc(NS(=O)(=O)c2ccc(NO)cc2)no1`, the GI50 was inactive: > 100 µM.
For `O=NN(CCCl)C(=O)Nc1ccc(Cl)c(Cl)c1`, the GI50 was inactive: > 100 µM.
Consider `CC1(C)CC(/C=C2/OC(=O)c3ccccc32)=C(C#N)C(=O)O1`, for which the GI50 was inactive: > 100 µM.
The result for `O=C1c2ccccc2NC(=S)[C@@H]2CCCN12` reads inactive: > 100 µM.
For `COC1C(O)CC(OC2C(C)OC(Oc3cc(O)c4c(O)c5c(cc4c3)C[C@@H]([C@H](OC)C(=O)[C@@H](O)[C@@H](C)O)[C@H](OC3CC(OC4CC(OC6CC(C)(O)C(O)C(C)O6)C(O)C(C)O4)C(O)C(C)O3)C5=O)CC2OC(C)=O)OC1C` (some centres not stated), the GI50 was inactive: > 100 µM.
The figure for `CNC(=O)NCCCC(NC(C)=O)C(=O)NCc1ccccc1` (configuration not stated) is inactive: > 100 µM.
In the case of `O=C1/C(=N/N=C(c2ccccc2)c2ccccc2)c2ccccc2-c2ccccc21`, the GI50 is inactive: 39.3 µM.
For the molecule `CSc1ccc(-c2cc(-c3nc4ccccc4[nH]3)no2)cc1`, the GI50 is inactive: 39.4 µM.
As for `C/C=C(C)/C=C/CC(C)CCC=C(C)C` (configuration not stated), the GI50 was inactive: > 100 µM.
As for `CCc1ccccc1NC(=O)C(C#N)C1=C(Cl)C(=O)c2ccccc2C1=O` (configuration not stated), the GI50 is inactive: 14.8 µM.
Turning to `NC1Cc2ccccc2OC1=O` (configuration not stated), the GI50 is inactive: > 100 µM.
The figure for `CCCCCCCC/C=C1\CCC(CN2CCOCC2)C1=O` (configuration not stated) is inactive: 16.4 µM; for `N=C(N)NS(=O)(=O)c1ccc(NC(=O)c2c3ccccc3nc3ccccc23)cc1` it is inactive: > 100 µM.
On to `CCOC(=O)/C(=C/c1ccc(C#N)cc1)N(CC)CC`, for which the GI50 was inactive: > 100 µM.
For the molecule `CN1C/C(=C\c2ccc(Cl)cc2)C(=O)/C(=C/c2ccc(Cl)cc2)C1`, the GI50 was inactive: 2.01 µM.
`Nc1cnc(Nc2cccc3ccccc23)o1`: the GI50 is inactive: > 10 µM.
As to `COC(=O)c1c(CC(Cc2ccc3c(c2)CCCC3)C(=O)O)ccc2c1CCCC2` (configuration not stated), the GI50 was inactive: 36 µM.
Consider `CCOC(=O)C1N(S(=O)(=O)c2ccc(C)cc2)CCC12C(c1ccc(OC)cc1)NC1CCCCC12` (configuration not stated), for which the GI50 is inactive: > 100 µM.
The figure for `O=C1c2ccoc2C(=O)c2oc(=O)ccc21` is inactive: > 39.7 µM.
The result for `Cc1cc(Cl)cc2c1NC(=O)C2=O.O=C(c1ccccc1)C(F)(F)F` reads inactive: > 100 µM.
The figure for `COCn1c2ccc(OC(C)=O)cc2c2c(=O)oc(C)nc21` is inactive: > 100 µM; for `CCOC1=C2C(=O)OC(=O)C2C2CCCCC2=C1` (configuration not stated) it is inactive: > 100 µM; for `CC(C)COC(c1ccc2c(c1)OCO2)C(C)Br` (configuration not stated) it is inactive: 36.3 µM.
In the case of `Cc1cc(O)nc(NN2C(Cl)C(=O)C2c2c(O)ccc3ccccc23)n1` (configuration not stated), the GI50 is inactive: 18.9 µM.
The figure for `COC(=O)C1C(=O)CC(C)(O)C(C(=O)OC)C1c1ccc(N(C)C)cc1` (configuration not stated) is inactive: > 100 µM.
Consider `Cc1ccc(-c2n[nH]c(=O)n2/N=C\c2ccccc2O)cc1`, for which the GI50 is inactive: > 100 µM.
The result for `C[C@H]1NC(=O)C2CCCCN2C(=O)CN(C)C(=O)CNC(=O)C2CCCCN2C(=O)[C@@H](NC(=O)c2nc3ccccc3cc2O)[C@@H](C)NC(=O)C2CCCCN2C(=O)CN(C)C(=O)CNC(=O)[C@@H]2CCCCN2C(=O)C1NC(=O)c1nc2ccccc2cc1O` (some centres not stated) reads active: 0.299 µM; that for `Clc1ccc(-n2nnc(C3=NCCCN3)c2-c2ccccc2)cc1`, inactive: > 100 µM.
The figure for `NS(=O)(=O)c1nnc(NS(=O)(=O)c2cccc3cccnc23)s1` is inactive: > 100 µM; for `O=C1OC(CC(=O)c2ccc(Cl)cc2Cl)C(Cl)=C1Cl` (configuration not stated) it is inactive: 47 µM.
The result for `CC(=O)Nc1ccc2c(c1)nc1c3ccccc3ccn21` reads inactive: > 100 µM; that for `CCOC(=O)C/C(=N\c1cc(C)on1)N(CC)CC.[O-][Cl+3]([O-])([O-])O`, inactive: > 100 µM; that for `CSc1nc(-c2cc3c(c(SC)n2)CCC3)cc2c1CCC2`, inactive: > 100 µM.
With `O=C1N/C(=N/N=C/c2ccccc2)N/C1=C\c1cccs1`, the GI50 is inactive: 21.7 µM.
In the case of `COC(=O)C1([C@@H]2C[C@@H](O)[C@]3(C)CC/C=C(\C)CCC[C@H](C)[C@H](O)[C@@H]2O3)CC1`, the GI50 was inactive: > 100 µM.
`COC1CC(C)(N)C(O)C(C)O1` (configuration not stated): the GI50 was inactive: > 100 µM.
With `CC(C)=C[C@@H]1C[C@H](n2cc(C)c(=O)[nH]c2=O)ON1CCO`, the GI50 is inactive: > 100 µM.
The result for `CCC1(O)CC(OC2CC(N(C)C)C(OC3CC(O)C(OC4CCC(=O)C(C)O4)C(C)O3)C(C)O2)c2c(cc3c(c2O)C(=O)c2c(O)ccc(O)c2C3=O)C1C(=O)OC` (configuration not stated) reads active: < 0.01 µM.
The figure for `Oc1ccc[n+](Cc2ccccc2)c1` is inactive: > 100 µM; for `Cc1ccc(S(=O)(=O)c2c(N)c3nccn3c3nc4ccccc4nc23)cc1` it is inactive: 38.6 µM; for `C=CCOc1ccc(C2c3c(n[nH]c3O)CC(O)(OCC)C2C(=O)OCC)cc1OC` (configuration not stated) it is inactive: > 100 µM.
The result for `O=c1oc2ccc3ccccc3c2cc1-c1nnc(-c2ccc([N+](=O)[O-])cc2)[nH]1` reads inactive: > 100 µM; that for `CN(C)CCNC(=O)c1cccc2nc3ccc4ccccc4c3nc12`, active: 0.091 µM; that for `O=c1cc(/C=C/c2ccc(O)c(O)c2)cc(/C=C/c2ccc(O)c(O)c2)o1`, inactive: 11 µM.
For the molecule `O=C(/C(Cl)=C/c1ccccc1)c1ccccc1`, the GI50 is inactive: 15.2 µM.
The result for `N#Cc1cccc2c1Sc1ccccc1N2` reads inactive: 38.8 µM; that for `C1=C(c2ccccc2)SC(N2CCCCC2)S1` (configuration not stated), inactive: > 100 µM.
In the case of `CC(=O)n1c2ccccc2c2nc3nc(Oc4ccc(C)cc4)c4ccccc4c3cc21`, the GI50 is inactive: > 100 µM.
As for `CCN(CC)CCNc1n[n+]([O-])c2ccccc2[n+]1[O-]`, the GI50 was inactive: 19.1 µM.
As to `O=[N+]([O-])c1cc2c(c([N+](=O)[O-])c1)NCc1ccccc1O2`, the GI50 was inactive: > 100 µM.
Consider `C1=CC=C2NCCCCCC/N=C3\C=CC=CC=C3NCCc3cccc(c3)CC/N=C/2C=C1`, for which the GI50 is inactive: 21.1 µM.
On to `CC[N+](CC)(CC)Cc1cn(S(=O)(=O)c2ccccc2)c2ccccc12`, for which the GI50 is inactive: > 100 µM.
As to `COc1ccc(C2C3=C(COC3=O)OC(C)(C)Oc3cc4c(cc32)OCO4)cc1OC` (configuration not stated), the GI50 is inactive: > 66.4 µM.
The figure for `O=C1OC[C@@H]2Cc3c([nH]c4ccccc34)[C@@H](c3ccc(O)cc3)N12` is inactive: 32.3 µM.
In the case of `Cc1cn(CC2=NC3CCCCC3N2)c(=O)[nH]c1=O` (configuration not stated), the GI50 was inactive: > 100 µM.
Consider `CCCCCCCCCCCC1=C(O)C(=O)C(CC2=C(O)C(=O)C(CCCCCCCCCCC)=C(O)C2=O)=C(O)C1=O`, for which the GI50 is inactive: > 100 µM.
On to `O=C(O)CP(=S)(S)c1ccccc1` (configuration not stated), for which the GI50 was inactive: > 100 µM.
The result for `COc1ccc(CNNC(=O)c2cc[n+]([BH2-]C#N)cc2)cc1OC` reads inactive: > 100 µM; that for `C=C1CCC(CC[C@@H]2CC[C@]3(OC2)O[C@@]2(O)CC[C@]3(C)OC2(C)C)C(C)(C)[C@H]1C/C=C1/C(=O)OC[C@@H]1O` (some centres not stated), inactive: 5.08 µM.
The result for `COc1cc(C2c3cc4c(cc3[C@@H](Nc3ccc(F)cc3)C3COC(=O)[C@H]23)OCO4)cc(OC)c1O` (some centres not stated) reads inactive: 11.2 µM; that for `COc1ccc(-c2c3c(cc4cc5c(cc24)OCO5)C(=O)OC3)cc1OC`, inactive: 1.66 µM.
